Laboratory results published in the supplement of paper PMC9446081.
Out of some 39,000 compounds screened, about 220 (0.56%) showed activity. This is one part of the list.

Tested on: Escherichia coli K-12 BW25113
Assay: relative growth (OD600 normalised to plate interquartile mean) (fraction); higher = less growth inhibition, active = 0.2 or less
Conditions: 50 µM; LB; incubation time: overnight (16-24 h)
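Note: static incubation at 37 °C against the wild-type strain, values averaged over two biological replicates.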

Q: For `Cc1ccc(S(=O)(=O)Nc2ccc3c(c2)C(=O)N([C@H](C)CO)C[C@H](C)[C@@H](CN(C)CC2CCCCC2)OCCCC[C@@H](C)O3)cc1`, which relative growth is on record?
A: Its relative growth is inactive: 0.982.

Q: With `N#Cc1cnc2c(C(N)=O)cnn2c1N` as the compound, how does the relative growth read?
A: The relative growth was inactive: 0.971.

Q: Which relative growth does the source give for `O=C(C[C@H]1CC[C@H](NS(=O)(=O)c2ccc(F)cc2)[C@@H](CO)O1)N1CCC(Cc2ccccc2)CC1` here?
A: The relative growth was inactive: 0.996.

Q: With `COc1cccc(-c2cn(CC[C@H]3CC[C@@H](NS(=O)(=O)c4ccccc4Cl)[C@@H](CO)O3)nn2)c1` as the compound, how does the relative growth read?
A: Its relative growth is inactive: 1.

Q: Which relative growth does the source give for `C[C@@H]1CCCCO[C@H](CN(C)Cc2ccc(C(=O)O)cc2)[C@H](C)CN([C@H](C)CO)C(=O)c2cc(NC(=O)CCC(F)(F)F)ccc2O1` here?
A: The relative growth was inactive: 0.965.

Q: `CCc1nc2ccc(C(=O)NC3CCN(Cc4ccccc4)CC3)cn2c1N(C)CCN1CCOCC1` was tested. Which relative growth did it give?
A: Its relative growth is inactive: 0.997.

Q: With `CC(C)[C@@H]1COCc2cnnn2CCC[C@H](C)C(=O)N[C@H](C(C)C)COCc2cnnn2CCC[C@H](C)C(=O)N1` as the compound, how does the relative growth read?
A: The relative growth was inactive: 0.981.

Q: Which relative growth does the source give for `C[C@@H]1CN([C@@H](C)CO)C(=O)Cc2cc(NC(=O)Nc3cccc4ccccc34)ccc2O[C@H]1CN(C)Cc1ccc(C(=O)O)cc1` here?
A: Its relative growth is inactive: 0.983.

Q: `C[C@H](CO)N1C[C@H](C)[C@H](CN(C)S(=O)(=O)c2cccs2)Oc2ncc(-c3ccccc3)cc2C1=O` was tested. Which relative growth did it give?
A: Its relative growth is inactive: 1.01.

Q: With `NC[C@H](c1ccccc1Cl)N1CCOCC1` as the compound, how does the relative growth read?
A: Its relative growth is inactive: 1.

Q: For `C[C@@H]1CN([C@H](C)CO)C(=O)c2cc(C#CC3(O)CCCC3)cnc2O[C@H]1CN(C)C(=O)Nc1ccc2c(c1)OCO2`, which relative growth is on record?
A: The relative growth was inactive: 0.998.

Q: Which relative growth does the source give for `C[C@H]1CN([C@@H](C)CO)S(=O)(=O)c2ccc(C#CCN(C)C)cc2O[C@H]1CN(C)Cc1ccncc1` here?
A: Its relative growth is inactive: 1.04.

Q: Which relative growth does the source give for `C[C@@H]1CN([C@@H](C)CO)C(=O)c2cc(NC(=O)Nc3cccc4ccccc34)ccc2O[C@@H](C)CCCCO[C@@H]1CN(C)C(=O)C1CCCCC1` here?
A: Its relative growth is inactive: 1.03.

Q: How did the relative growth turn out when `C[C@H]1CN([C@@H](C)CO)S(=O)(=O)c2ccc(C#CC3(O)CCCC3)cc2O[C@H]1CN(C)C(=O)Nc1ccc(F)cc1` was run?
A: The relative growth was inactive: 0.946.

Q: For `O=C(C[C@H]1CC[C@@H]2[C@H](COC[C@@H](O)CN2S(=O)(=O)c2ccc(F)cc2)O1)N[C@H]1CCN(Cc2ccccc2)C1`, which relative growth is on record?
A: Its relative growth is inactive: 0.999.

Q: How did the relative growth turn out when `C[C@@H]1CN([C@H](C)CO)C(=O)Cc2cc(NC(=O)Nc3ccc(F)cc3)ccc2O[C@H]1CN(C)S(=O)(=O)c1cn(C)cn1` was run?
A: Its relative growth is inactive: 0.986.

Q: For `O=C(CN1CCOCC1)N[C@H]1CC[C@H](CCNC(=O)Nc2cc(F)ccc2F)O[C@@H]1CO`, which relative growth is on record?
A: The relative growth was inactive: 0.994.

Q: `C[C@@H]1CN([C@H](C)CO)C(=O)c2cc(NS(=O)(=O)c3cn(C)cn3)ccc2O[C@@H](C)CCCCO[C@@H]1CN(C)CC1CC1` was tested. Which relative growth did it give?
A: The relative growth was inactive: 1.04.

Q: Which relative growth does the source give for `C[C@@H]1CN([C@@H](C)CO)C(=O)Cc2cc(NC(=O)CCN3CCOCC3)ccc2O[C@@H]1CN(C)C(=O)NC1CCCCC1` here?
A: The relative growth was inactive: 0.996.

Q: For `Cc1ccc(S(=O)(=O)Nc2ccc3c(c2)CC(=O)N([C@@H](C)CO)C[C@@H](C)[C@H](CN(C)S(=O)(=O)c2c(C)noc2C)O3)cc1`, which relative growth is on record?
A: The relative growth was inactive: 0.993.

Q: `Cc1ccc(S(=O)(=O)N(C)C[C@@H]2Oc3ccc(NS(=O)(=O)c4ccc(F)cc4)cc3C(=O)N([C@@H](C)CO)C[C@@H]2C)cc1` was tested. Which relative growth did it give?
A: Its relative growth is inactive: 1.03.

Q: `COc1ccc2c3c([nH]c2c1)[C@H](CO)N(C[C@]13CN(CC2CCCCC2)C1)C(=O)Nc1cccc(c1)F` was tested. Which relative growth did it give?
A: The relative growth was inactive: 1.01.

Q: Which relative growth does the source give for `COCC(=O)Nc1ccc2c(c1)C(=O)N(C)C[C@@H](OC)[C@@H](C)CN(Cc1cccc(F)c1)[C@H](C)CO2` here?
A: Its relative growth is inactive: 0.995.

Q: `C[C@@H]1CCCCO[C@@H](CN(C)S(=O)(=O)c2ccccc2)[C@@H](C)CN([C@@H](C)CO)C(=O)c2cc(NS(=O)(=O)c3cn(C)cn3)ccc2O1` was tested. Which relative growth did it give?
A: Its relative growth is inactive: 0.993.

Q: Which relative growth does the source give for `Cc1cccc(-c2ccc3c(c2)O[C@H](CN(C)Cc2ccc(C(=O)O)cc2)CCN(C(C)C)S3(=O)=O)c1` here?
A: The relative growth was inactive: 1.03.

Q: Which relative growth does the source give for `C[C@H](CO)N1C[C@H](C)[C@H](CN(C)C(=O)Nc2ccc(C(F)(F)F)cc2)OCCCC[C@H](C)Oc2ccc(NC(=O)Nc3ccccc3)cc2C1=O` here?
A: The relative growth was inactive: 1.03.

Q: For `COc1ccc2c3c([nH]c2c1)[C@H](CO)N(Cc1ccc(cc1)Cl)C[C@]13CCN(CCc2ccccc2)CC1`, which relative growth is on record?
A: The relative growth was inactive: 0.967.

Q: Which relative growth does the source give for `C[C@@H]1CCCCO[C@H](CN(C)C(=O)C2CCCCC2)[C@@H](C)CN([C@H](C)CO)C(=O)c2cc(NC(=O)Nc3ccccc3)ccc2O1` here?
A: The relative growth was inactive: 0.975.

Q: `COc1ccc(S(=O)(=O)Nc2ccc3c(c2)C(=O)N([C@H](C)CO)C[C@H](C)[C@H](CN(C)C(=O)Nc2cccc4ccccc24)OCCCC[C@H](C)O3)cc1` was tested. Which relative growth did it give?
A: The relative growth was inactive: 1.01.

Q: With `C[C@H]1CN([C@@H](C)CO)S(=O)(=O)c2ccc(C#CCN(C)C)cc2O[C@H]1CN(C)Cc1ccc2c(c1)OCO2` as the compound, how does the relative growth read?
A: The relative growth was inactive: 0.997.

Q: How did the relative growth turn out when `COCC(=O)N1CCO[C@@H]2[C@H]1CC[C@H]2OC` was run?
A: The relative growth was inactive: 1.05.

Q: For `O=C(C[C@@H]1C[C@@H]2c3cc(NS(=O)(=O)c4ccc(F)cc4)ccc3O[C@@H]2[C@H](CO)O1)NCc1ccccc1`, which relative growth is on record?
A: The relative growth was inactive: 1.02.

Q: With `C[C@@H]1CN([C@@H](C)CO)C(=O)Cc2cc(NC(=O)Cn3cnnn3)ccc2O[C@H]1CN(C)Cc1ccc(C(F)(F)F)cc1` as the compound, how does the relative growth read?
A: Its relative growth is inactive: 0.957.

Q: `C[C@H](CO)N1C[C@H](C)[C@H](CN(C)S(=O)(=O)c2ccccc2)Oc2ccc(NS(=O)(=O)c3ccccc3)cc2CC1=O` was tested. Which relative growth did it give?
A: Its relative growth is inactive: 1.04.

Q: `O=C(CN1CCOCC1)NCC[C@@H]1CC[C@@H](NC(=O)c2ccccc2F)[C@@H](CO)O1` was tested. Which relative growth did it give?
A: Its relative growth is inactive: 1.01.

Q: Which relative growth does the source give for `COc1ccc2c3c([nH]c2c1)[C@H](CO)N(C[C@]13CCN(CC1)C(=O)Nc1ccccc1)C(=O)Nc1ccc(cc1)F` here?
A: Its relative growth is inactive: 1.01.

Q: Which relative growth does the source give for `C[C@@H]1CCCCO[C@@H](CN(C)Cc2ccccc2)[C@H](C)CN([C@@H](C)CO)C(=O)c2cc(NS(=O)(=O)c3cccs3)ccc2O1` here?
A: The relative growth was inactive: 0.899.

Q: `CN(C)CC#Cc1ccc([C@@H]2[C@H](CO)N3C(=O)CN(C(=O)c4cccnc4)C[C@@H]23)cc1` was tested. Which relative growth did it give?
A: Its relative growth is inactive: 1.

Q: With `C[C@H](CO)N1C[C@H](C)[C@@H](CN(C)Cc2ccc3c(c2)OCO3)Oc2ccc(NC(=O)CCCN(C)C)cc2CC1=O` as the compound, how does the relative growth read?
A: The relative growth was inactive: 0.975.

Q: How did the relative growth turn out when `C[C@H]1CN([C@@H](C)CO)C(=O)CCCn2nncc2CO[C@@H]1CN(C)C(=O)Nc1ccnc(N2CCOCC2)c1` was run?
A: Its relative growth is inactive: 0.947.

Q: `CCCCC(CC)CN1CN(CC(CC)CCCC)CC(C)(N)C1` (stereo unspecified) was tested. Which relative growth did it give?
A: The relative growth was inactive: 0.382.

Q: `Cc1noc(C)c1S(=O)(=O)N(C)C[C@H]1OCc2cnnn2CCCC(=O)N([C@H](C)CO)C[C@H]1C` was tested. Which relative growth did it give?
A: Its relative growth is inactive: 0.998.

Q: With `COc1cccc(C#Cc2cnc3c(c2)C(=O)N([C@@H](C)CO)C[C@@H](C)[C@H](CN(C)C(=O)C2CCOCC2)O3)c1` as the compound, how does the relative growth read?
A: The relative growth was inactive: 1.

Q: For `CC(C)N1C(=O)CNC1=S`, which relative growth is on record?
A: Its relative growth is inactive: 0.992.

Q: With `C[C@H]1CCCCO[C@H](CN(C)C(=O)Nc2cccc3ccccc23)[C@@H](C)CN([C@@H](C)CO)C(=O)c2cc(NC(=O)Nc3ccc(F)cc3)ccc2O1` as the compound, how does the relative growth read?
A: The relative growth was inactive: 1.02.

Q: With `C[C@@H]1CN([C@H](C)CO)C(=O)Cc2cc(NC(=O)CCN3CCOCC3)ccc2O[C@H]1CN(C)C(=O)Nc1ccccc1` as the compound, how does the relative growth read?
A: The relative growth was inactive: 0.987.

Q: With `COC(=O)[C@H](Cc1ccccc1)N1CC2=C[C@H](C3CC3)n3c(=O)n(C)c(=O)n3[C@@H]2[C@H]1[C@H](O)Cc1ccccc1` as the compound, how does the relative growth read?
A: The relative growth was inactive: 1.02.

Q: With `CCCNC(=O)N1C[C@@H](C)[C@@H](OC)CN(C)C(=O)c2cc(NS(=O)(=O)CC(F)(F)F)ccc2OC[C@@H]1C` as the compound, how does the relative growth read?
A: The relative growth was inactive: 0.995.

Q: How did the relative growth turn out when `Cc1ccc([C@@H]2CC(=O)N[C@@H]2C(N)=O)cc1` was run?
A: The relative growth was inactive: 0.998.

Q: Which relative growth does the source give for `C[C@@H]1CN([C@H](C)CO)C(=O)c2cc(NS(=O)(=O)c3ccccc3)ccc2O[C@@H](C)CCCCO[C@H]1CN(C)Cc1ccc2c(c1)OCO2` here?
A: Its relative growth is inactive: 0.992.

Q: With `COc1ccc2c3c(n(c2c1)C)[C@@H](CO)N(C[C@]13CN(C1)C(=O)Nc1cccc(c1)F)C(=O)C1CCOCC1` as the compound, how does the relative growth read?
A: Its relative growth is inactive: 1.01.

Q: For `COc1ccc(NC(=O)N(C)C[C@H]2OCCCC[C@H](C)Oc3ccc(NC(=O)Nc4ccc5c(c4)OCO5)cc3C(=O)N([C@H](C)CO)C[C@@H]2C)cc1`, which relative growth is on record?
A: The relative growth was inactive: 0.998.

Q: How did the relative growth turn out when `CCC=CCC1=C(C)CCC1=O` was run?
A: Its relative growth is inactive: 0.878.

Q: With `C[C@@H]1CN([C@H](C)CO)C(=O)Cc2cc(NC(=O)Cn3cnnn3)ccc2O[C@@H]1CN(C)C(=O)Nc1ccc2c(c1)OCO2` as the compound, how does the relative growth read?
A: Its relative growth is inactive: 0.949.

Q: Which relative growth does the source give for `C[C@@H]1CCCCO[C@H](CN(C)Cc2ccncc2)[C@@H](C)CN([C@H](C)CO)C(=O)c2cc(NC(=O)Nc3ccc4c(c3)OCO4)ccc2O1` here?
A: The relative growth was inactive: 0.995.

Q: `C[C@H](CO)N1C[C@H](C)[C@@H](CN(C)Cc2ccc(-c3ccccc3)cc2)Oc2c(NC(=O)CCC(F)(F)F)cccc2C1=O` was tested. Which relative growth did it give?
A: Its relative growth is inactive: 1.01.

Q: With `Cc1n[nH]c(NCc2ccco2)nc1=O` as the compound, how does the relative growth read?
A: The relative growth was inactive: 0.993.

Q: Which relative growth does the source give for `C[C@@H]1CN([C@@H](C)CO)C(=O)c2cc(NC(=O)C3CCCCC3)ccc2O[C@@H](C)CCCCO[C@H]1CN(C)Cc1ccc2c(c1)OCO2` here?
A: Its relative growth is inactive: 1.

Q: How did the relative growth turn out when `COCC(=O)N(C)C[C@H]1Oc2cc(C#Cc3cccnc3)ccc2S(=O)(=O)N([C@H](C)CO)C[C@@H]1C` was run?
A: The relative growth was inactive: 0.985.

Q: How did the relative growth turn out when `O=C(C[C@H]1CC[C@@H]2[C@H](COC[C@@H](O)CN2C(=O)c2cccnc2)O1)NCC1CC1` was run?
A: The relative growth was inactive: 0.977.

Q: How did the relative growth turn out when `C[C@H]1CN([C@@H](C)CO)C(=O)Cc2cc(NC(=O)C3CC3)ccc2O[C@H]1CN(C)C(=O)Nc1ccc(F)cc1` was run?
A: The relative growth was inactive: 0.987.
